Sequences with one replicate were seen in a single cluster, so their values are uncertain.
System: ATP
Experiment: switch fluorescence ratio, 500 uM ATP over buffer (Cy3 cluster intensity, sum of 5 cycles each) (fold (ratio)); higher = stronger signal-on switching upon ATP binding; sequences stand for … in TCGTCGGCAGCGTCAGATGTGTATAAGAGACAGTTTTTTTTTTTTTTTTTTTTTTTTT…TC
Details: aptamer strand: ATP DNA aptamer (quencher-CACCTGGGGGAGTATTGCGGAGGAAGG + anchor), 100 nM annealed; ATP concentration: 500 uM; one replicate
Procedure, shortened: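 Between each of five buffer/ATP cycles, the flow-cell was stripped with NaOH and re-annealed. Each cycle imaged Cy3-labelled switching-strand clusters, annealed to 100 nM quencher-labelled ATP aptamer on a modified Illumina MiSeq flow-cell, first in selection buffer and then after 15 min with 500 uM ATP at 22 °C. The fluorescence ratio is summed target-cycle over summed buffer-cycle Cy3 intensity per cluster, averaged per switch-domain sequence, with clusters outside 100-1000 RFU excluded.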
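Also: ATP exposure 15 min at 22 °C before imaging.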

| Sequence | switch fluorescence ratio |
| --- | --- |
| TCCGTGATTA | 1.39 |
| CTACCATGGT | 1.04 |
| CAAGCACCCA | 1.14 |
| TTAATGGATT | 1.01 |
| AGGTTCTGGA | 1.02 |
| GACAGCAGGA | 1 |
| GTGGGCCGT | 1.11 |
| GCCGAGGGAC | 1.01 |
| TGCGTGGTTT | 1.02 |
| TAATGGTCCA | 0.943 |
| TCCCCCTTCG | 1.35 |
| TCTTGTTTAC | 1.56 |
| TGTGATTAGC | 1.04 |
| GCGTTAATGC | 1.07 |
| GGCAAAAGTG | 0.999 |
| GTAGTAAGAA | 1.16 |
| TTATTTTTG | 0.961 |
| CGTCCCTCCG | 2.19 |
| TGAAGACAGG | 1 |
| ATAGTATCGG | 1.01 |
| AGCGGGAGCC | 0.956 |
| ATTTGTAACT | 0.999 |
| TGTGGAAGTG | 1.06 |
| CAGTGGTGGA | 1.02 |
| TTGCTACCCG | 1.05 |
| GAATGCCGT | 0.987 |

| Sequence | switch fluorescence ratio |
| --- | --- |
| GGTTGATAGG | 1 |
| GGTGCCACTA | 0.984 |
| AGCCGGATTA | 0.991 |
| AGAATGCCGT | 1 |
| CGCTTCAGCG | 0.999 |
| GCGGTATTAT | 0.976 |
| ATCTCTACCT | 1.24 |
| TCCAATTATT | 0.987 |
| TCCTAGTTA | 0.979 |
| ATTGCTTCGA | 1.01 |
| ACTTGCCCCT | 1 |
| GCCTAGTCAT | 1 |
| TTGTGTTCC | 1.07 |
| AACGTATTTT | 1.11 |
| GAGTACAGC | 1.05 |
| CTGGTACCCG | 1.01 |
| TATATTGGTT | 0.981 |
| CTGGTTGTGC | 1.03 |
| AACTACTTAC | 1.48 |
| AAACTGGTCA | 1.05 |
| CACCATTAAG | 1.02 |
| CCAGTCAGCC | 1.03 |
| TTGTAACAGG | 1.06 |
| TAAGCTAAAG | 0.991 |
| GACCTCTGTG | 1.16 |
| GCAAACTCGA | 1.29 |

| Sequence | switch fluorescence ratio |
| --- | --- |
| ATTGCTTAGT | 0.964 |
| TTCATAAGTT | 1.03 |
| TCAGTCGATA | 1.02 |
| TACACCTGTC | 0.915 |
| ATGGACTCTT | 0.99 |
| CCGTAGGATT | 1.11 |
| CGTTGCCCCG | 1.03 |
| CACAAGAGC | 0.987 |
| ACGGGGCTGA | 1.04 |
| ATGAGGGTG | 1.1 |
| GCAGACCGAA | 1.01 |
| AAGTTGGATC | 0.981 |
| TGGGCTGAGC | 0.98 |
| CTGATGCTCA | 1.04 |
| TTACTGTTAA | 1.08 |
| AGCTCCGGGG | 0.999 |
| AGCCGATGAT | 1 |
| GTATGTTGGA | 1.01 |
| ACCGTTATAG | 1.34 |
| GTCAGAAACC | 1.11 |
| TTAGTTTCGT | 0.989 |
| TACCTATCTC | 1.08 |
| GGTATTTAGA | 0.993 |
| GATTTCAAGG | 1.01 |

— the supplement of paper PMC10126150
